Source: paper PMC6919601, “Identification of Plasmodium dipeptidyl aminopeptidase allosteric inhibitors by high throughput screening” (PLoS ONE, 2019)
The whole screen tested about 110,000 compounds, of which about 230 (0.21%) showed an effect of 50% or more. Some of the results follow.

target: DPAP1 (Plasmodium falciparum, UniProt Q8IIJ9); assay: primary screen, percent inhibition; read by cleavage of a fluorogenic dipeptide substrate; higher = more effect of the substance; set-up: species or system P. falciparum D10 trophozoite lysates; single well
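Also: 30 min substrate incubation versus DMSO and 10 µM JCP410 controls.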

Chain of DPAP1 (Q8IIJ9 whole entry, looked up): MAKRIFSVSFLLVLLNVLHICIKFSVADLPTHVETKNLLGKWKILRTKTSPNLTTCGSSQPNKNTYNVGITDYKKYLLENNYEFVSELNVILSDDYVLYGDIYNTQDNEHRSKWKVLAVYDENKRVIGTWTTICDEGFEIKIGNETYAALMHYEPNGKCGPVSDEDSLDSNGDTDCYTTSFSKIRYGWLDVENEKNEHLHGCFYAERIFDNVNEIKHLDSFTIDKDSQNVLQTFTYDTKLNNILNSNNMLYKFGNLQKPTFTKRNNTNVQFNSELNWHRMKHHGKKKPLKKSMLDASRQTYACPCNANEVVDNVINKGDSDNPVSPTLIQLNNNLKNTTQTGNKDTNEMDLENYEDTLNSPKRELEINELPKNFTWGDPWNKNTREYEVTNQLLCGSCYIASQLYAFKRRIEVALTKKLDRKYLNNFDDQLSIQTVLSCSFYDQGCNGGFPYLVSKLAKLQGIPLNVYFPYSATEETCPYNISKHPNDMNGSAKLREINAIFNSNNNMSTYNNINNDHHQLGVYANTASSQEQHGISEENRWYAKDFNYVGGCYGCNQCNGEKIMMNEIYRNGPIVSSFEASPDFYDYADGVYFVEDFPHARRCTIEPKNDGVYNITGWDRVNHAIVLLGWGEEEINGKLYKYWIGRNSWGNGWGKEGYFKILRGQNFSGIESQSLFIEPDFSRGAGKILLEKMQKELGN

`Cn1cnc2c(=O)oc3ccc(S(=O)(=O)N4CCC(Cc5ccccc5)CC4)cc3c21` was tested. Which “% Inhibition @ 10 uM” value did it give?
The value was 3.8%.

With `CCOc1ccc(CC(=O)Nc2sc3c(c2C#N)CCCC3)cc1OCC` as the compound, how does the “% Inhibition @ 10 uM” value read?
The value was -6.84%.

For `O=C(NCc1ccccc1)C1Cc2ccccc2CN1S(=O)(=O)c1cccs1` (stereo not drawn), which “% Inhibition @ 10 uM” value is on record?
Its value is -1.52%.

How did the “% Inhibition @ 10 uM” value turn out when `CCCCOc1ccc(C(=O)N/C(=C\c2ccc3c(c2)OCO3)C(=O)OC)cc1` was run?
The value was -1.81%.

For `COc1ccc(CN2CCC(N3CCCCC3)CC2)cc1`, which “% Inhibition @ 10 uM” value is on record?
The value was -4.6%.

Which “% Inhibition @ 10 uM” value does the source give for `COc1ccc2c(c1OC)C(=O)N(c1cccc(Cl)c1)C2=O` here?
Its value is 9.75%.

How did the “% Inhibition @ 10 uM” value turn out when `Cc1nc2c(C)cccn2c1C(=O)c1ccccc1` was run?
The value was 0.66%.

`CCOc1ccc2nc(SCC(=O)Nc3ccccc3C(=O)O)sc2c1` was tested. Which “% Inhibition @ 10 uM” value did it give?
The value was -0.305%.

For `CC12CN3CC(C)(CN(C1)C3C(O)C(O)C(O)CO)C2=O` (stereo not drawn), which “% Inhibition @ 10 uM” value is on record?
Its value is -0.712%.

Which “% Inhibition @ 10 uM” value does the source give for `Cc1c(C(=O)N2CCOCC2)oc2c1-c1nn(Cc3ccc(Cl)cc3)cc1CC2` here?
Its value is 2.73%.

How did the “% Inhibition @ 10 uM” value turn out when `CCOC(=O)N1CCC(NS(=O)(=O)c2ccc3[nH]c4c(c3c2)CCCC4)CC1` was run?
The value was -0.35%.

For `CC(C)c1ccc(NC(=O)c2ccco2)cc1`, which “% Inhibition @ 10 uM” value is on record?
Its value is 1.48%.

With `COc1cc(C2C3=C(O)CC(C)(C)CC3=NC(C)=C2C(=O)N2CCCCC2)cc(OC)c1O` (stereo not drawn) as the compound, how does the “% Inhibition @ 10 uM” value read?
The value was -1.48%.

How did the “% Inhibition @ 10 uM” value turn out when `CCCCN(CCCNC(=O)c1cc(C)nn1-c1ccccc1)Cc1ccccc1` was run?
The value was -0.138%.

For `CC(C)CC(=O)Nc1nc(-c2ccc(S(=O)(=O)N3CCOCC3)cc2)cs1`, which “% Inhibition @ 10 uM” value is on record?
The value was -3.65%.

With `CCOC(=O)C1CCCCN1Cc1ccc(Cl)cc1Cl` (stereo not drawn) as the compound, how does the “% Inhibition @ 10 uM” value read?
Its value is 1.55%.

For `CC(C)(O)C#Cc1ccc(C(=O)N2CCN(c3ccc(Cl)cc3)CC2)cc1`, which “% Inhibition @ 10 uM” value is on record?
Its value is 3.65%.

With `NS(=O)(=O)c1ccc(NC(=S)NC(=O)/C=C/c2ccccc2)cc1` as the compound, how does the “% Inhibition @ 10 uM” value read?
Its value is -7.25%.

With `N#CCC(=O)c1ccc(Br)cc1` as the compound, how does the “% Inhibition @ 10 uM” value read?
Its value is 0.66%.

Which “% Inhibition @ 10 uM” value does the source give for `CCOC(=O)N1CCC(Nc2ccc(Cl)c([N+](=O)[O-])c2)CC1` here?
The value was -5.44%.

`CCOc1cc(C2C3=C(O)CC(C)(C)CC3=Nc3ncnn32)ccc1OC(F)F` (stereo not drawn) was tested. Which “% Inhibition @ 10 uM” value did it give?
Its value is 1.73%.

With `COC1CCCCC1NCCc1cccc(F)c1` (stereo not drawn) as the compound, how does the “% Inhibition @ 10 uM” value read?
The value was -9.04%.

How did the “% Inhibition @ 10 uM” value turn out when `Cc1nc2cc(-c3ccccc3)nn2c(C)c1CC(=O)N1CCCCCC1` was run?
Its value is 0.953%.

For `CCNc1oc(COc2ccc(OC)cc2)nc1C#N`, which “% Inhibition @ 10 uM” value is on record?
The value was 1.35%.

With `CCN(C(=O)c1ccc(Cl)cc1)c1ccccc1C` as the compound, how does the “% Inhibition @ 10 uM” value read?
Its value is -4.3%.

With `Cc1cccn2c(=O)c3cc(C(=O)NC4CCCC4)n(C)c3nc12` as the compound, how does the “% Inhibition @ 10 uM” value read?
Its value is 0.522%.

For `CC(=O)OC1CCC2(C)C(=CCC3C2CCC2(C)C3CC3CCCCC32C(C)=O)C1` (stereo not drawn), which “% Inhibition @ 10 uM” value is on record?
Its value is -5.23%.

Which “% Inhibition @ 10 uM” value does the source give for `CNC(=O)/C(=C\c1ccc2c(c1)OCO2)NC(=O)c1ccc(Br)o1` here?
Its value is -0.941%.

Which “% Inhibition @ 10 uM” value does the source give for `C1=Nc2ccccc2-c2ccccc2N1` here?
Its value is -0.828%.

For `Clc1ccc(-c2nc(-c3ccccc3)no2)c(Cl)c1`, which “% Inhibition @ 10 uM” value is on record?
Its value is -3.77%.

`Nc1sc2c(c1C(=O)NCc1cccnc1)CCCCC2` was tested. Which “% Inhibition @ 10 uM” value did it give?
The value was -5.06%.

For `CCOc1ccccc1CN1CCN(c2cccc(Cl)c2)CC1`, which “% Inhibition @ 10 uM” value is on record?
Its value is -1.07%.

`N#CC1=C(N)Oc2nc(O)nc(O)c2C12C(=O)Nc1ccc(Br)cc12` (stereo not drawn) was tested. Which “% Inhibition @ 10 uM” value did it give?
The value was -0.216%.

`COc1ccc(C2C(C(C)=O)=C(O)C(=O)N2Cc2cccnc2)cc1OC` (stereo not drawn) was tested. Which “% Inhibition @ 10 uM” value did it give?
The value was -6.27%.

Which “% Inhibition @ 10 uM” value does the source give for `Cc1ccc(C2C(=O)N(C3CCCCCC3)CC(=O)N2Cc2ccc3c(c2)OCO3)cc1` (stereo not drawn) here?
Its value is 2.79%.

For `O=C(NCc1ccc(Cl)cc1)C1c2ccccc2Oc2ccccc21`, which “% Inhibition @ 10 uM” value is on record?
The value was -3.14%.

How did the “% Inhibition @ 10 uM” value turn out when `Cc1nc2c(-c3ccccc3)c(C)nn2c(C)c1CC(=O)O` was run?
Its value is -1.03%.

Which “% Inhibition @ 10 uM” value does the source give for `Cc1ccc(CNC(=O)CCn2nc(C)c3c(C)n(-c4ccccc4)nc3c2=O)o1` here?
Its value is -8.55%.

Which “% Inhibition @ 10 uM” value does the source give for `NC(=O)CSc1nc2nccnc2c(=O)n1Cc1cccs1` here?
The value was 3.36%.

For `CCOC(=O)C1=C(Cc2ccc(OC)cc2)C(=O)c2ccccc2C1=O`, which “% Inhibition @ 10 uM” value is on record?
Its value is 6.8%.

With `COc1ccc(C(=O)N2CCN(C(c3ccccc3)c3ccccc3)CC2)cc1OC` as the compound, how does the “% Inhibition @ 10 uM” value read?
Its value is 2.43%.

Which “% Inhibition @ 10 uM” value does the source give for `COc1ccc(-c2nc(N)n(C(=O)Cc3ccccc3)n2)cc1` here?
The value was 2.32%.

With `CCOc1ccc(C(=O)c2nc(O)c3ccccc3c2O)cc1` as the compound, how does the “% Inhibition @ 10 uM” value read?
Its value is 5.32%.

Which “% Inhibition @ 10 uM” value does the source give for `Cc1ccc(NC(=O)CSc2nc(N)cc(N)n2)cc1` here?
Its value is 5.53%.

Which “% Inhibition @ 10 uM” value does the source give for `COc1cccc(/C=N/N=C(N)N)c1O` here?
The value was 19.2%.

How did the “% Inhibition @ 10 uM” value turn out when `COc1ccc(C(=O)NCc2ccc(S(N)(=O)=O)cc2)c(OC)c1` was run?
The value was 3.25%.

`CCN(CC)CC(O)COc1ccc(C2C3=C(CC(C)(C)CC3=O)OC3=C2C(=O)CC(C)(C)C3)cc1` (stereo not drawn) was tested. Which “% Inhibition @ 10 uM” value did it give?
The value was 2.13%.

Which “% Inhibition @ 10 uM” value does the source give for `COc1ccc(CCNC(=O)c2oc3ccc(C)cc3c2C)cc1OC` here?
The value was -1.36%.

Which “% Inhibition @ 10 uM” value does the source give for `Cc1cc(C)nc(SCCn2c(N3CCN(C)CC3)nc3c2c(=O)n(C)c(=O)n3C)n1` here?
Its value is -2.71%.

Which “% Inhibition @ 10 uM” value does the source give for `CCc1ccc(OCCCC(=O)NCc2ccccc2)cc1` here?
Its value is -4.63%.

Which “% Inhibition @ 10 uM” value does the source give for `CCCC(=O)NCCc1nc2ccccc2n1C(C)C` here?
The value was -1.29%.

Which “% Inhibition @ 10 uM” value does the source give for `COc1ccc(CNCc2cc(F)ccc2F)cc1` here?
Its value is -7.39%.

How did the “% Inhibition @ 10 uM” value turn out when `COc1nc(-c2ccc(C)cc2)nc2ccccc12` was run?
The value was -7.35%.

`COc1cccc(C2=NOC(C(=O)N3C(C)CCCC3C)C2)c1OC` (stereo not drawn) was tested. Which “% Inhibition @ 10 uM” value did it give?
The value was -11.8%.

`O=C(Nc1ccc(-c2cn3cccnc3n2)cc1)c1ccccc1` was tested. Which “% Inhibition @ 10 uM” value did it give?
The value was -3.45%.

For `COc1ccc(C2=N/C(=C\c3ccc(OC)cc3OC)C(=O)O2)cc1`, which “% Inhibition @ 10 uM” value is on record?
The value was 1.11%.

With `CCN(CC)S(=O)(=O)N1CCC(C(=O)NC2CCCC2)CC1` as the compound, how does the “% Inhibition @ 10 uM” value read?
The value was -0.519%.

How did the “% Inhibition @ 10 uM” value turn out when `CCOc1cc2ccccc2cc1C(=O)Nc1ccccn1` was run?
Its value is 3.47%.

For `CCC(C)NC(=O)CSCc1nc(-c2ccc(OC)c(OC)c2)oc1C` (stereo not drawn), which “% Inhibition @ 10 uM” value is on record?
Its value is -1.05%.

For `CCCCCC(C)NC(=O)C(CC)Oc1ccccc1` (stereo not drawn), which “% Inhibition @ 10 uM” value is on record?
The value was 1.13%.

With `Oc1ccccc1-c1nc(O)c2c(n1)Oc1ccc(Cl)cc1C2` as the compound, how does the “% Inhibition @ 10 uM” value read?
Its value is 3.92%.

`Cc1ccc2nc(N(CCCN(C)C)C(=O)COc3ccc(Cl)cc3)sc2c1` was tested. Which “% Inhibition @ 10 uM” value did it give?
The value was -10.8%.

`Cc1ccc2[nH]c3c(c2c1)CN(C)CC3` was tested. Which “% Inhibition @ 10 uM” value did it give?
The value was 1.63%.

How did the “% Inhibition @ 10 uM” value turn out when `CS/C(=C\C(=O)c1cccs1)C(C)C(=O)c1cccs1` (stereo not drawn) was run?
The value was 7.02%.

How did the “% Inhibition @ 10 uM” value turn out when `O=c1c2ccccc2nc(/C=C/c2cc(Br)ccc2O)n1CCCO` was run?
Its value is -0.941%.

For `CC1CN(Cc2cc(F)ccc2F)CC(C)O1` (stereo not drawn), which “% Inhibition @ 10 uM” value is on record?
Its value is -1.75%.
